Some of the results follow.
Key:
HSkMC = human skeletal muscle cells; assay: cytotoxicity call (relative viability < 0.9); conditions: 10 µM
HepG2 = assay: cytotoxicity call (relative viability < 0.9); conditions: 10 µM
S. aureus RN4220 = assay: growth inhibition call (relative growth <= 0.2); conditions: 50 µM

Row | Compound | cytotoxicity call (HSkMC) | cytotoxicity call (HepG2) | growth inhibition call (S. aureus RN4220)
1 | COc1ccc(NC(=O)Nc2ccc3c(c2)C(=O)N([C@H](C)CO)C[C@H](C)[C@H](CN(C)C(=O)Cc2ccccc2)OCCCC[C@@H](C)O3)cc1 | inactive | inactive | inactive
2 | C[C@H]1CCCCO[C@@H](CN(C)C(=O)Nc2ccc(C(F)(F)F)cc2)[C@@H](C)CN([C@@H](C)CO)C(=O)c2cc(NS(=O)(=O)c3ccc(F)cc3)ccc2O1 | inactive | inactive | inactive
3 | C[C@@H]1CCCCO[C@@H](CN(C)CC2CC2)[C@H](C)CN([C@@H](C)CO)C(=O)c2cc(NC(=O)Nc3ccccc3)ccc2O1 | inactive | inactive | inactive
4 | C[C@@H]1CN([C@H](C)CO)C(=O)Cc2cc(NC(=O)Cn3cnnn3)ccc2O[C@H]1CN(C)S(=O)(=O)c1cccs1 | inactive | inactive | inactive
5 | C[C@H](CO)N1C[C@H](C)[C@H](CN(C)Cc2ccc3c(c2)OCO3)Oc2ccc(NC(=O)Nc3ccc(C(F)(F)F)cc3)cc2CC1=O | inactive | active | inactive
6 | C[C@H]1CN([C@@H](C)CO)C(=O)c2cccc(NC(=O)C3CCOCC3)c2O[C@@H]1CN(C)S(=O)(=O)c1cn(C)cn1 | inactive | inactive | inactive
7 | COc1cc(CO)cc(I)c1O[C@H]1C=C(C(=O)NCCO)C[C@@H](NCc2ccccc2F)[C@@H]1O | inactive | inactive | inactive
